Test results taken from the RNAGym collection of RNA variant scans (doi:10.7554/elife.90254).
Read counts are not given, so values of variants with three or more changes are uncertain.

B1: LINE1-mini (parent)
chain: GGCAGAGCUCAACACAGCGUGGCAAAGUGGCUGUGGCUAGACUGCC

Variants of: B1
Experiment: self-cleavage, relative activity (ratio to wild type); higher = more cleavage; in vitro, sequencing; the parent is a self-cleaving ribozyme

Variant	self-cleavage
GGCAGAGUUCAACACAGCGUGGCAAAGUUCCUGUGGCUAGACUGCC	0.17
GGCAGAGUUCAACACAGCGCGGCAAAGUGGCUGUGGGUAGAUUGCC	0.01
GGCAGAGUUCAACACAGCGAGGCAAAGUGGCCGUGGCUUUACUGCC	0.18
GGCAGAGUACGACACAGCGUGGCAAAGUGGCUGUGGCUAGACUGCC	0
GGCAGAGUUCAACACAGCGGGGCAAAGUGGCUGUUGGUAGACUGCC	0.01
GGCAGAGUUCAACACAGCGUGGCAAAGUUGUUGUGGCUAGGCAGUC	0.28
GGCAGAGUUCAACACAGCGUGUCUAAGUGGCUGUGGCUAGACUGCA	0.09
GGCAGAGUUCAACACAGCGUGGCAAAGUGGCUCUGGCAAGUCUGCC	0.07
GGCAGAGUCCAACUCAGCGUGGCAAAGUGGCUGUGGCCAGAUUUCC	0.03
GGCAGAGUUCAACACAGCGUGGCAAAGAGGCUGUGGCUAGACUGCA	0.08
GGCAGAGUUCAACACAGCGGGGCAGAGUGGCAGUGGCUAGACUGGC	0.13
GGCAGAGUUCAACACAGCGGGGCAAAGUGGCUGCGGCUGGACUGCC	0.14
GGCAGAGUUCAACACAGCGUGUCAAAGUGGCUGUGGCUGGACUGCC	0.02
GGCAGAGUUCAACACAGCGUGGCAAAAUCUCUGUGGCUUGACAGCC	0.01
GGCAGAGUUCAACACAGCGUGUCAAAGUGACUGUGGCUAGACUGCC	1.37
GGCAGAGUUCAACACAGCGUGGCAAAGUGGCUGUGUCUAGCCUGCC	0.06
GGCAGAGUUCAACACAGCGUGGCAAAGUGGCUCUGUGCAGACUGCU	0.02
GGCAGAGUUCAACACAGCGUGGCAAAGUGGCUGUUGCUAGCCUGCC	0.04
GGCAGAGUUCAACACAGCGUGGCAAAGUGGCUUUGGCUAGACGGCC	0.13
GGCAGAGUCCAACACAGCGUGGCAAAGUGGCUGUGGCUAGACUGCA	0.16
GGCAGAGUUCAACACAGCGUGGCAAAGUGUCUGUCGAUAGACUGCC	0
GGCAGAGUUCAACACAGCGUGGCAAAGAGGCUGUGGCCAGACUGCC	0.27
GGCAGAGUUCAACACAGCGCGGCGAAGUGGCUGUGGCUAUACUGCC	0.28

Variant	self-cleavage
GGCAGAGUCCAACAAACCCUGGCAAAGUGGCUGGGGCUAGACUGCC	0
GGCAGAGUUCAACACAGCGUGGCAAACUUGCUGUGGCUAGACUUCC	0.1
GGCAGAGUUCAACACAGCGUGGCAAAGCGGCUGUGGCUAGUCUGCC	0.29
GGCAGAGCACUCCACAGCGUGGCAAAGUGGCUGUGGCUAGACUGCC	0.03
GGCAGAGUGCAACACAGCGUGGCAAAGUGGAUUUGGCUAGACUGCC	0.09
GGCAGAGUUCAACACAGCGAGGCAAAGUGGCUGUGGCUCGACUGCC	0.03
GGCAGAGUUCAACACAGCGCGGCAAAGUGGUUGUGGCUAUACUGGC	0.1
GGCAGAGCACCACACAGCGUGGCAAAGUGGCUGUGGCUAGACUCUC	0
GGCAGAGUUCAACACAGCGUGGCAAAGUCGCUGUAGCUAGCGUGCC	0.09
GGCAGAGCACCACACAGCGUGGCAAAGUGGCUGUGGCUAUACUGCC	0.02
GGCAGAGUUCAACACAGCGUGGCAAAGGGGCUGUGUCUAGACUGCC	0.03
GGCAGAGUUCAACACAGCGUGGCAAAGUGGCCGUGGCUAGAGUGCC	0.43
GGCAGAGUUCAACACAGCGCGGCAAAGUCGCUGUGGCUAGACUGCC	0.09
GGCAGAGUACAACUCAGCGUGGCAAAGUGGCUGUGGGUAUACUGCC	0.01
GGCAGAGUUCAACACAGCGUGGCAAAGUAGCUGUGAUUAGACUGCC	0.1
GGCAGAGUGCAACGCAGCGUGGCAGUAUGGCUGUGGCUAGACUGCC	0
GGCAGAGUUCAACACAGCGUGGCAAAGUUGCUGUGGCUAUACUGCC	0.22
GGCAGAGCACCACACAGCGUGGGAAAGUGGCUGUGGCUAAACUGCC	0.02
GGCAGAGUUCAACACAGCGAGGCAAAGUGGCUGUGGCUAGAAUGCC	0.1
GGCAGAGUUCAACACAGCGUGGCAAAAUGGCUGUGCCUAGACUGCC	0.11
GGCAGAGUCCAACACAUCGUGGCAAAGUGGCUGUUGCUAGACUGCC	0.01
GGCAGAGUCCAACACAGCGUGGGAAAGUGGCAGUUGCUAGACCGCC	0.03
GGCAGAGUACAACACAUCGUGGCAAAGUGUCUUUGGCUGGACUGCC	0.6

Variant	self-cleavage
GGCAGAGCACCACACAGCGUGUCAAAUUGGCUGUGGCUAGACUGCC	0.01
GGCAGAGCACCGCACAGCGUUGCAAAGUGGCUGUGGCUAGACUGCC	0.01
GGCAGAGCACCACACAGCGUGGCAAAGGGGCUGUAGCUAGACUGCC	0.02
GGCAGAGUUCAACACAGCGUGGCAAAGGUGCUGUGGCUAGACUGCC	0.08
GGCAGAGUACAACACAGCGCUGCAAAGUGGCUGUGGCUAGACUGCC	0.03
GGCAGAGUCCAACAAAGCGUGGCAAAUUGGCUGUGGCUAAACUGCC	0.04
GGCAGAGUUCAACACAGCGUGGCAAAGUAGCUGUGGAUAGACUGCC	0.06
GGCAGAGUCCAACACAGCGUGGCAAAGUGUCUGCGGCUAGACUGCC	0.01
GGCAGAGUAAAACACAGCGUGGCAAAGUGGCUGUGGCUAGACUGCG	0.02
GGCAGAGUACAACACAGCGAGGCAAAGUGGCUUUAGCUAGACUGCC	0.06
GGCAGAGUCCAACACACCGUGGCAAAGUUGCUGUGGCUAGACUGCC	0.1
GGCAGAGUUCAACACAGCGUGGCAAAGUAGCUGAGGCUAGACUGCC	0.07
GGCAGAGUUCAACACAGCGUGGCAAAGUAGCUGCGGCUAGACUGCC	0.18
GGCAGAGUUCAACACAGCGCGUCAAAGUGUCUGUGGCUAGACUGCC	0.04
GGCAGAGUUCAACACAGCGUGGCAAAGUGUCUGUGGCUAGACUUCC	0.19
GGCAGAGUUCAACACAGCGUGGCAAAGUGCCUGUGCCUGGACUGCC	0.01
GGCAGAGUUCAACACAGCGUGUUAAAGAGGCUGUGGCUCGACUGCC	0.44
GGCAGAGCACUACACAGCGUGGCAAAGUGACUGUGGCUAGACAGCC	0.02
GGCAGAGUAUAACACAGCGUAGCAAAGUGGAUGUGGCUAUACUGCC	0.03
GGCAGAGCACCACGCAGCCUGGCAAAGUGGCUGUGGCUAGACUGCC	0.03
GGCAGAGCACCACACAGCGUGGCAAAGUGGCUGUGGCUAGAAUGCA	0
GGCAGAGUUCAACACAGCGUGGCAAAGUGGCUGUGGCUAGACCUCC	0.13
GGCAGAGCACGACCCAGCCUGGCAAAGUGGCUGUGGCUAUACUUCC	0.01

Variant	self-cleavage
GGCAGAGUGCAACACAGCGUGGCAAAUUGGCUGUGGCUAGACUGCC	0.03
GGCAGAGCACGACGCAGCGUGGCAAAGUGGCUGUGGCUAGACUGUC	0.02
GGCAGAGUUCAACACAGCGUGGCAAAGUGGCUUUGGCUACAAUGCC	0.43
GGCAGAGCACCACACAGCGUGGCAAAGUGGCUGUCGCUAGACUGCC	0.02
GGCAGAGCACUACACGGCGUGGCAAAGUGGGUGUUGCUUGACUGCC	0.01
GGCAGAGUUCAACACAGCGUGCCAAAGUGACUGUGGCUACACUGCC	0.06
GGCAGAGUCCCACAAAGCGUGGCAGUGUGGCUGUGGCUAGACUGCC	0.03
GGCAGAGUCCAAGACAGCGUGGCAAAGUGGCUGUGGCUAGACUGCC	0.11
GGCAGAGCACGACACAGCGUAGCAAAGUGGCUGUGGCUAGUCUGCC	0.02
GGCAGAGCACACCACAGCGUGGCCAAGUGGCCGUGGCUAUACUGCC	0.01
GGCAGAGUCCAACACAGCGAGGCAAAGUGGCUGUGGCUAGAGUGCC	0
GGCAGAGUUCAACACAGCGUGGCAAAGUGGCUGAGGCUUGACUGCC	0.14
GGCAGAGCACCACACAGCGUGGAAAAGUGGCUGUGGCUAGACUGCC	0.02
GGCAGAGUUCAACACAGCGUGGCAAAGUGGCUAUCGCUAGACUGCC	0.09
GGCAGAGUCAAACACAGCGUGGCAAAGUGGCUGUGGCUAAACUGCC	0.01
GGCAGAGUUCAACACAGCGUGGCAAAGUCGCUGUGGCUAAACUGCC	0.07
GGCAGAGUUCAACACAGCGUGGCAAAGUGGCUGUGGCUAUACUGCG	0.03
GGCAGAGUUCAACACAGCGCUGCAAAGUGGCUGUGGCUAGACUGAG	0.03
GGCAGAGUUCAACACAGCGUGGCAAACUUGCUGUGGCUCGACUGCC	0.02
GGCAGAGUUCAACACAGCGUGGCAAAGAGGCGGUGGCUAGACUGCC	0.04
GGCAGAGUUCAACACAGCGUGACAAAGUGGCUGUGUCUAGACUGCC	0.34
GGCAGAGUUCAACACAGCGUGGCAAAGUGACUGUGGCUAGAUUGCC	0.18
GGCAGAGCACUACACAGCGUGGCAGAGUGGCUGUGGCUAGACUGCC	0

Variant	self-cleavage
GGCAGAGUUCAACACAGCGUGGCAAAGUGGCACUGGCUAGACUGCC	0.08
GGCAGAGUUCAACACAGCGUGGCAAAGUGGCCGUGGCUAGACUGCU	0.07
GGCAGAGUUCAACACAGCGUGGCAAAGUGUCUGUGGUUAGACUGCC	0.09
GGCAGAGUUCAACACAGCGUGUCAUAGUGGCUGUGGCUAGACUGCC	1.62
GGCAGAGCACCACACAGCGUGGCAAAGUGGCUGUGGACAGACUGCC	0.01
GGCAGAGUUCAACACAGCGUGGCAAAGUGGCAGUGGCGAGACUUGC	0.12
GGCAGAGUUCAACACAGCGUGUCAAAGUGGCUGUGGGUAGACUUCG	0.18
GGCAGAGUUCAACACAGCGUGACAAAGUGGCCGUGGCUAGACUGCC	1.12
GGCAGAGUUCAACACAGCGUGGCAAAGGGGCUGUGGCUCGACUGCC	0.05
GGCAGAGUUCAACACAGCGUGGCAAAGUGUCUGCGGCUAGACUGCC	0.25
GGCAGAGCACCACACAGCGUGGCAAAGUGUCUGUGGCUAGACAGCC	0.01
GGCAGAGUUCAACACAGCGUGGCAAAGUGGCUGUGAGUAGACUGCC	0.28
GGCAGAGUUCAACACAGCGUGCCAAAGUGGCCGUGGCUAAACAGCC	0.08
GGCAGAGUUCAACACAGCGUGGCAAAGUGACUGUGGCUGGACAGCC	0.02
GGCAGAGUUCAACACAGCGUGGCAAAGUGGCUCUGGCUAGACUUCC	0.14
GGCAGAGUUCAACACAGCGUGGCAAAGGGUCUGUGACUAGACUGCC	1.33
GGCAGAGUUCAACACAGCGAGGCAAAGUGGUUGUGGCUAGACUGCC	0.05
GGCAGAGUUCAACACAGCGUGGCAAAGUGGCGGUAGCUAGACUGAC	0.15
GGCAGAGUCCACGACAGCGUGGCAAAGUGGCUGUGGCUAGACUGCC	0.05
GGCAGAGUUCAACACAGCGAAGCAAAGUGGCUGUGGCUAGACUGCC	0.22
